Measured values as given in paper PMC6919601, “Identification of Plasmodium dipeptidyl aminopeptidase allosteric inhibitors by high throughput screening” (PLoS ONE, 2019).
The campaign covered roughly 110,000 compounds. About 230 (0.21%) showed an effect of 50% or more. Some of the results follow.

target: DPAP1 (Plasmodium falciparum, UniProt Q8IIJ9); experiment: primary screen, percent inhibition; read by cleavage of a fluorogenic dipeptide substrate; higher = more effect of the substance; design: species or system P. falciparum D10 trophozoite lysates; single well
Sequence (Q8IIJ9 whole entry, looked up): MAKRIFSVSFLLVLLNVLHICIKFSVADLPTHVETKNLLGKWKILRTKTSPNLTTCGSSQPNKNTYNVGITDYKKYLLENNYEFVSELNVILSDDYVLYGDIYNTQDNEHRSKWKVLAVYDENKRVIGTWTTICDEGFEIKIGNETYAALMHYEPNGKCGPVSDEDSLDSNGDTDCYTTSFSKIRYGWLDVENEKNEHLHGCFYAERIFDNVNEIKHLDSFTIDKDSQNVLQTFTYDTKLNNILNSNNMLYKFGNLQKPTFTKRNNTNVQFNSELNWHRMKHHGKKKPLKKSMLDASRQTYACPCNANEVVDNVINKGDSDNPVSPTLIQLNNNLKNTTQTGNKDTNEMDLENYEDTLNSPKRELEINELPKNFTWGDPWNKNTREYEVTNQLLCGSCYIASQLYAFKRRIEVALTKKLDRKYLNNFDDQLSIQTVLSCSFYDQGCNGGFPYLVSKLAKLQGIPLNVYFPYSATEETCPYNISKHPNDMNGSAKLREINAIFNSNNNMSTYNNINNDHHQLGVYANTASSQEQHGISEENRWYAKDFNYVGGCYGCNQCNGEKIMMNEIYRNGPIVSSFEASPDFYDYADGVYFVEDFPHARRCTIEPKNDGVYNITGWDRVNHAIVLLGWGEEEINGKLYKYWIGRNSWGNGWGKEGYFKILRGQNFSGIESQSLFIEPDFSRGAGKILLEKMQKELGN
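Also: 30 min substrate incubation versus DMSO and 10 µM JCP410 controls.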

Row | SMILES | % Inhibition @ 10 uM
1 | COc1ccc(CCNC(=O)Cn2c(SCc3ccccc3F)nc3cccnc32)cc1OC | 0.693%
2 | CCCC[C@H](NC(=O)[C@H](CC(C)C)NC(C)=O)C(=O)c1nc2ccccc2o1 | -0.214%
3 | CCCCN1C(C)=NC(C(F)(F)F)(C(F)(F)F)C2=C1CC(C)(C)CC2=O | 0.221%
4 | CCOc1ccc(-c2nonc2NC(=O)c2oc3ccc(F)cc3c2C)cc1OCC | 1.9%
5 | Cn1nc(-c2ccc(C(=O)N3CCN(Cc4ccccc4)CC3)cc2)c2ccccc2c1=O | -11.1%
6 | CC(=O)Nc1cccc(Oc2ccc3c(c2)C(=O)N(c2ccccc2C)C3=O)c1 | -7.33%
7 | CCC(=O)Nc1ccccc1-n1cccc1 | -3.23%
8 | Cc1sc(NC(=O)c2ccco2)c(C(c2cccnc2)N2CCN(c3ccccn3)CC2)c1C (stereo not shown) | 38.8%
9 | Cc1nc(-c2ccccc2)cc(N2CCCCC2)n1 | 0.605%
10 | O=C(Nc1cccc(Cl)c1)N1CCC(Cc2ccccc2)CC1 | 0.727%
11 | CCN(CC)CCN(C)Cc1ccc(Cl)cc1 | -0.603%
12 | O=C(NCc1ccc2c(c1)OCO2)c1ccc(S(=O)(=O)N2CCCCCC2)cc1 | 12.7%
13 | Cc1ccc(CNC(=O)C2CCN(c3nn4c(=O)cc(C)nc4s3)CC2)cc1 | 4.55%
14 | Cc1ccc(S(=O)(=O)/N=C(/NCc2ccccc2)c2ccc(F)cc2)cc1 | 3.87%
15 | CCOc1ccc(C(=O)/C=C(\O)C(=O)OC)cc1 | -5.14%
16 | N#CCNC(=O)[C@H](CC1CCCCC1)NC(=O)C1CCCCC1 | -3.49%
17 | CCCS(=O)(=O)c1nc(S(=O)(=O)c2ccc(C)cc2)c(NCCCOC)s1 | -0.522%
18 | COc1ccc(-c2cc(-c3ccc(C(C)C)cc3)c(C#N)c(N)n2)cc1 | 3.39%
19 | O=C(c1nn2c(C(F)(F)F)cc(-c3cccs3)nc2c1Cl)N1CCN(c2ccccc2)CC1 | -3.77%
20 | O=C(O)c1cc(-c2cccc(Br)c2)nc2ccccc12 | -1.54%
21 | CCS(=O)(=O)c1c(S(=O)(=O)CC)c2cc(C(C)(C)C)ccn2c1C(=O)c1ccc(C)cc1 | -1.47%
22 | Cc1cc(C(=O)NCCCN2CCN(C)CC2)c2c(C)nn(-c3cccc(Cl)c3C)c2n1 | -3%
23 | Cc1sc2ccc3ccsc3c2[n+]1C | -4.51%
24 | CCC1CCc2c(sc(NC(=O)c3cccc(Br)c3)c2C(N)=O)C1 (stereo not shown) | -2.63%
25 | CCC1CCCCN1CCCNC(=O)CSc1nc2nc(C)c(Cc3ccccc3)c(C)n2n1 (stereo not shown) | -3.48%

Row | SMILES | % Inhibition @ 10 uM
26 | O=C(N/C(=C/c1cccs1)C(=O)N1CCOCC1)c1cccs1 | -0.996%
27 | Cc1nnc(N2CCN(C(=O)NCC3CCCO3)CC2)c2nn(-c3ccc(Cl)cc3)c(C)c12 (stereo not shown) | 4.65%
28 | O=C(CNS(=O)(=O)c1ccc(Br)s1)N1CCC(Cc2ccccc2)CC1 | -0.601%
29 | CCC(C)NC(=O)c1cc(-c2ccc(Cl)cc2)on1 (stereo not shown) | -0.601%
30 | CC(=O)OCC1CC2=C(CCCC2(C)C)CC1C (stereo not shown) | 33.1%
31 | Cc1noc(C)c1S(=O)(=O)N(C)Cc1ccccc1 | -2.12%
32 | COc1ccccc1-c1cc(C(=O)N2CCN(C)CC2)no1 | 3.89%
33 | Cc1ccccc1N(CC(=O)Nc1ccccc1Cl)S(C)(=O)=O | -8.4%
34 | O=C1N/C(=C\c2ccc(O)c(Br)c2)C(=O)N1Cc1ccc(Cl)cc1 | 6.89%
35 | CCC1(O)C(=O)N(C2CCCCC2)S(=O)(=O)N(C2CCCCC2)C1=O | -6.27%
36 | CC1=NN(C(=O)c2cc(-c3ccc(C)s3)nc3ccccc23)C(O)(C(F)F)C1 (stereo not shown) | -1.88%
37 | CC1=CC2=NC(=O)/C(=C\c3cc(C)n(-c4cc(C)ccc4C)c3C)C(=N)N2O1 | -5.1%
38 | COc1cccc(CNC(=O)CC/N=c2/c(N3CCCC3)c(O)c2=O)c1 | -11.3%
39 | O=S(=O)(Nc1c(Br)cc(Br)c2cccnc12)c1ccccc1 | 3.12%
40 | Cc1ccc(-c2[nH]nc3c2C(c2ccc(O)c(O)c2)C(C#N)=C(N)O3)cc1 (stereo not shown) | 0.777%
41 | Cc1ccc(NS(=O)(=O)c2cc(-c3cc(C)no3)ccc2C)nc1 | -9.3%
42 | Cc1noc(NS(=O)(=O)c2ccc(NC(=O)CS(=O)(=O)c3ccccc3)cc2)c1C | -5.1%
43 | Cc1onc(-c2c(Cl)cccc2Cl)c1C(=O)NCCc1ccccc1 | -7.5%
44 | O=C(CSc1ncnc2sc3c(c12)CCC3)Nc1ccc(F)cc1 | 0.528%
45 | CCCCNC(=O)CN(c1ccc(OC)c(Cl)c1)S(C)(=O)=O | 4.75%
46 | COCCNC(=O)c1cc(-n2cnnc2)ccc1Cl | -10%
47 | O=C1OC(c2ccccc2F)=N/C1=C\c1ccccc1Cl | -2.96%
48 | COc1ccc(CCc2nc(C)cc(CN(C)C)c2O)cc1 | 2.38%
49 | C=CCOc1ccc(C2c3c(oc4ccccc4c3=O)C(=O)N2c2nc(C)c(C)s2)cc1OCC (stereo not shown) | 4.06%
